# Measured values from article PMC4336329 (PLoS ONE, 2015).
# The campaign covered roughly 310,000 compounds. About 2,200 (0.71%) showed an effect of 50% or more. The effect is printed as a negative number. The list shows a part of the results. Where a SMILES comes first, the peptide text is derived from it. The star is where a group is joined. Boc = CC(C)(C)OC(=O)*; OBn = c1ccc(CO*)cc1
# Molecular target: human ether-à-go-go-related gene (hERG) potassium channel (human, UniProt Q12809)
# Test: primary screen, population patch clamp on CHO cells stably expressing hERG
# human ether-à-go-go-related gene (hERG) potassium channel, sequence (Q12809 whole entry, looked up): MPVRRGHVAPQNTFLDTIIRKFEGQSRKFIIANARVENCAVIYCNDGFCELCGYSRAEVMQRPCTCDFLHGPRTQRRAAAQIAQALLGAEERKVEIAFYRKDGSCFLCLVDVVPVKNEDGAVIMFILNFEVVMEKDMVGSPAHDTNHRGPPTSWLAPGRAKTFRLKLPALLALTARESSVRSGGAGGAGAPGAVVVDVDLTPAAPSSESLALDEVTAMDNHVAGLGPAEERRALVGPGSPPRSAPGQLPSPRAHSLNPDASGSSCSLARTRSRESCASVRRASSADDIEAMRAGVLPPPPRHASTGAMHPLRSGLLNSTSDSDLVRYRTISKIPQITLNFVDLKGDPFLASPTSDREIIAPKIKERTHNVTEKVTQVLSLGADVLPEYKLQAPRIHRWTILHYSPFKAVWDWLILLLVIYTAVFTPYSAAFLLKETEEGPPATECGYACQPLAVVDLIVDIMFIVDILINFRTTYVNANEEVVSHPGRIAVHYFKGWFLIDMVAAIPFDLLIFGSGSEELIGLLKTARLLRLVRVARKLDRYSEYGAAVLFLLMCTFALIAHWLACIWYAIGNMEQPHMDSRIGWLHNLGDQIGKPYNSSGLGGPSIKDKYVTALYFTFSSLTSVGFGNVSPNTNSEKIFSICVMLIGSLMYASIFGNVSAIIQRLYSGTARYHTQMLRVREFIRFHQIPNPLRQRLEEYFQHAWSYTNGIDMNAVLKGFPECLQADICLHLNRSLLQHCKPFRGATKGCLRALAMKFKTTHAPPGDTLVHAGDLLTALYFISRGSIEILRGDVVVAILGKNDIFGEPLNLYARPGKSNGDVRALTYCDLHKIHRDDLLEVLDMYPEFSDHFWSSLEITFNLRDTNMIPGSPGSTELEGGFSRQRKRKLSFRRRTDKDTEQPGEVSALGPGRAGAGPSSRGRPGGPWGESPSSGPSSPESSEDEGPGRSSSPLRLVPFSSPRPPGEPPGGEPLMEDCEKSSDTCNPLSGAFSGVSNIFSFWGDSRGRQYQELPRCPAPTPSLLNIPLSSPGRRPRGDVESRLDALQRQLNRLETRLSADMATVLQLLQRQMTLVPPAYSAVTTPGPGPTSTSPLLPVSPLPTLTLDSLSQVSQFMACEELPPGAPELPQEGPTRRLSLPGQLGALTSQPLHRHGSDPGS
row,Structure (SMILES),"hERG current change (%, negative = inhibition) at 1uM [%]"
1,COc1ccc(C2CCCN2C(=S)Nc2cccc(Cl)c2C)cc1OC (centres unmarked),2.08
2,COc1ccc(N(CC(=O)NN=C2CCN(C)CC2)S(=O)(=O)c2ccc(NC(C)=O)cc2)cc1,11.3
3,CC1(c2nnc(Cc3ccccc3)o2)CC(c2ccccc2F)=NO1 (centres unmarked),14.1
4,C=CCN(C(=O)CNS(=O)(=O)c1ccccc1)C(C(=O)NCCOC)c1ccncc1 (centres unmarked),12.3
5,CCN(CC)S(=O)(=O)c1ccc2c3c(cccc13)C(=O)N2,4.19
6,O=C(COc1ccc(-c2ccccc2)cc1)NNC(=O)NC1CCCCC1,13.2
7,Cc1ccc(C(=O)OCC(=O)NCc2ccco2)cc1C,10.3
8,Cc1noc(NS(=O)(=O)c2ccc(N/C=C\C(=O)c3cccs3)cc2)c1C,13.6
9,CCN(CC)c1ccc([N+](=O)[O-])cc1C(=O)N1CCOCC1,5.14
10,Cc1ccccc1NC(=O)Nc1nnc(CC(=O)NCc2ccccc2)s1,-6.04
11,CCc1nc(SCc2ccc(Cl)cc2)n[nH]1,11.9
12,Cc1cccc2cc3c(nc12)-c1ccccc1C3=O,14.8
13,Cc1c(C#N)c(O)n(CCO)c(=O)c1N=Nc1ccc(S(N)(=O)=O)cc1,-1.63
14,CCOC(=O)CNC(=O)c1ccccc1,7.32
15,CCOc1cc(S(=O)(=O)NCc2ccncc2)ccc1Cl,7.07
16,Cc1ccccc1N/C(=N/S(=O)(=O)c1cc(F)ccc1F)c1ccccc1,10.3
17,COc1ccc(Nc2nc(Cl)nc(NCCO)n2)cc1,4.45
18,CC(C)C(NC(=O)OC(C)(C)C)C(=O)NC(CCC(=O)OCc1ccccc1)C(N)=O (stereo not drawn) (Boc-Val-Glu(OBn)-NH2; configuration not given here),-4.76
19,CCc1cccc2c1NC(=O)C21N2CCCC2C(C(=O)c2ccc3ccccc3c2)C12C(=O)Nc1ccccc12 (centres unmarked),6.17
20,Cc1cc(NC(=O)c2ccc(N3C(=O)C4C5C=CC(C5)C4C3=O)cc2)no1 (centres unmarked),12.6
21,CC1(C)Cc2c(sc3nc(SCC(=O)O)nc(N)c23)CO1,14.4

row,Structure (SMILES),"hERG current change (%, negative = inhibition) at 1uM [%]"
1,CC1CCN(C(=O)CSc2nnc3c(n2)[nH]c2ccc(F)cc23)CC1,-19
2,O=C(CNC(=O)c1cccc(Cl)c1)Nc1ccc(F)c(F)c1F,7.3
3,Cc1cccc(C2NC(c3cccc(C)c3)C([N+](=O)[O-])C(C)(C)C2[N+](=O)[O-])c1 (centres unmarked),7.86
4,N#Cc1c(-c2ccccc2)c(-c2ccccc2)n(Cc2ccco2)c1NC(=O)c1cccs1,15.9
5,CCN(CC(=O)Nc1ccccc1C(F)(F)F)C(=O)c1cc(S(=O)(=O)N2CCCCCC2)ccc1OC,11.8
6,Cc1cc(C)cc(C(=O)NC(=S)Nc2ccc3c(c2)OCCO3)c1,-4.67
7,O=C(COC(=O)CNC(=O)c1cccc(F)c1)NCCC1=CCCCC1,12.4
8,CC(C)n1cc(C(=O)N2CCCC(N3CCN(c4cccc(Cl)c4)CC3)C2)cn1 (centres unmarked),-13.2
9,COc1ccc(CCN(C)C(=S)Nc2cccc(C)c2)cc1OC,19.2
10,Cc1cc(C)n2nc(SCC(=O)c3cc(C)n(CC4CCCO4)c3C)nc2n1 (centres unmarked),0.0539
11,Cc1cccc(C)c1NC(=O)CN(C)C(=O)C1CC(=O)N(c2cccc3ccccc23)C1 (centres unmarked),8.8
12,Cc1cc(=O)n2nc(N3CCC(C(=O)NCc4ccccc4)CC3)sc2n1,14.7
13,O=C(c1ccc(C(=O)N2CCCc3ccccc32)s1)N1CCCc2ccccc21,5.87
14,COc1ccc(-c2c3c(cc(C)[n+]2[O-])oc2ccc(OC)cc23)cc1,10.3
15,COc1cc(/C=C/C(=O)OCC(=O)Nc2ccc3c(c2)OCCO3)ccc1OCC#N,8.93
16,NC(=O)C1=C[C@H](C2CCCCC2)C[C@H](OCc2ccc(CO)cc2)O1,11.9
17,CCN(CC)CCN(Cc1cc2cc(C)c(C)cc2[nH]c1=O)C(=S)NCc1ccco1,-0.139
18,Clc1cccc(-c2nnc(SCc3nc4ccccc4[nH]3)n2Cc2ccco2)c1,-0.558
19,COc1ccc(/C=N/Nc2nc(NCc3ccco3)nc(Nc3ccc(OC)cc3)n2)cc1,2.98
20,CCN(CC)c1ccc(S(=O)(=O)N2CCOCC2)cc1NC(=O)CSc1nnc(N)s1,1.84
21,Cc1cccnc1NC(=O)CCc1nnc2ccc(NCc3ccco3)nn12,14.6

row,Structure (SMILES),"hERG current change (%, negative = inhibition) at 1uM [%]"
1,Cc1ccc(N(C(=O)c2ccc(S(=O)(=O)N3CCOCC3)cc2)C2C=CS(=O)(=O)C2)cc1C (centres unmarked),13.8
2,COc1cc(/C=N/NC(=O)c2ccc(C)nc2)cc([N+](=O)[O-])c1O,5.44
3,COC(=O)Cn1cnc2c(cnn2-c2ccc(C)cc2)c1=O,12.3
4,CCOc1ccc(C2/C(=C(/O)c3ccc(F)cc3)C(=O)C(=O)N2CCCN(C)C)cc1 (centres unmarked),15.6
5,CC12CCC(C(=O)N3CCCc4ccccc43)(CC1=O)C2(C)C (centres unmarked),13.3
6,CCOc1ccccc1-n1nnnc1SCC(=O)O,-1.44
7,O=C(CCC1CCCC1)Nc1nnc(-c2ccc3c(c2)OCO3)s1,9.9
8,Cc1ccc2nc(NC(=O)c3ccc4c(c3)OCO4)sc2c1,8.82
9,NS(=O)(=O)c1ccc(CCNC(=O)C2COc3ccccc3O2)cc1 (centres unmarked),7.48
10,CCN1C(=O)[C@@H]2[C@@H](c3ccc(SC4CCCCC4)cc3)N3CCC[C@@]3(C(=O)OC)[C@@H]2C1=O.O=C(O)C(F)(F)F,17.8
11,Cc1cc2[nH]c(=O)c(=O)[nH]c2cc1S(=O)(=O)Nc1cccc(C)c1C,15.2
12,COc1ccc(C(C(=O)NC2CCCCC2)N(C(=O)Cc2c[nH]c3ccccc23)c2ccccc2C)cc1OC (centres unmarked),9.07
13,Cc1ccc2cc3cc(C(=O)N(CC(=O)NC4CCCC4)c4cccc(C)c4C)sc3nc2c1,3.16
14,O=c1[nH]nc(-c2ccc(NCCCO)c([N+](=O)[O-])c2)c2ccccc12,7.15
15,Cc1ccccc1CNC(=O)/C=C\C(=O)O,1.78
16,Cc1cc(Nc2ccc(C)c(C)c2)n2nc(C)nc2n1,-9.51
17,COc1ccccc1CN1CC(C(=O)NCc2c(F)ccc(C)c2F)CCC1=O (centres unmarked),7.48
18,Cn1c(SCC(=O)N2CCOCC2)nc2c(c1=O)SCC2,14.4
19,Cc1ccc2nc(N/N=C/c3ccccc3F)nc(-c3ccccc3)c2c1,7.9
20,O=C(Oc1c(CN2CCOCC2)cc(Cl)c2cccnc12)c1cccs1,9.85
21,Cn1c2ccccc2c2nnc(NN)nc21,15.6

row,Structure (SMILES),"hERG current change (%, negative = inhibition) at 1uM [%]"
1,Cc1ccc(OCC(=O)Nc2ccc(S(=O)(=O)N(C)C3CCN(C)CC3)cc2)c(C)c1,8.9
2,COc1ccccc1N1CCN(C(=O)CCCCCn2c(=O)[nH]c3ccsc3c2=O)CC1,1.14
3,CCOc1ccc(NC(=O)CN(C)C(=O)c2ccccc2OCc2cccc(C)c2)cc1OCC,12
4,CCC(=O)Nc1cccc(NC(=O)CSc2nc3c(c(=O)n(C)c(=O)n3C)n2C)c1,17.4
5,O=P(NS(=O)(=O)c1ccc(Br)cc1)(Oc1ccccc1)Oc1ccccc1,16.2
6,COc1ccc(CCNC(=O)c2cc3sccc3n2C)cc1OC,10.5
7,O=C(CSc1n[nH]c(-c2cccnc2)n1)Nc1ccccc1[N+](=O)[O-],11.9
8,CC(C)(C)NC(=O)NC(=O)CN1CCN(c2ccccc2)CC1,-3.2
9,CCCC(=O)Nc1ccc(NC(=O)c2ccccc2OC)cn1,3.81
10,Cc1cc([N+](=O)[O-])ccc1NC(=O)Nc1ccccc1F,13
11,Cc1ccccc1N1OC2C(=O)N(c3ccc(F)cc3)C(=O)C2C1c1ccccn1 (centres unmarked),4.69
12,Cc1nc2c3ccccc3nc(NNC(=O)CCC(=O)NCCN3CCN(c4ccccc4F)CC3)n2n1,6.6
13,CCN(CC(O)Cn1c2ccccc2c2ccccc21)S(=O)(=O)c1ccc(F)cc1 (centres unmarked),13.3
14,CC(=O)Nc1ccc(S(=O)(=O)NCc2cccnc2)cc1,15
15,NC1=NN(c2cccc(C(=O)O)c2)C(=O)C1,13.1
16,CC(C)(C)OC(=O)N/N=C/c1cn(-c2ccccc2)nc1-c1cccnc1,6.15
17,COc1ccc(Cl)cc1NC(=O)CSc1nnc(Cc2ccc(C)cc2)c(=O)[nH]1,3.44
18,Cc1ccc(Nc2nc(N)nc(CN3CCN(Cc4ccc5c(c4)OCO5)CC3)n2)cc1,-53.4
19,Cc1ccnc(Sc2ncccc2[N+](=O)[O-])n1,14.4
20,CCn1c(COc2ccccc2Cl)nnc1SCC(=O)Nc1ncccc1C,5.62
